# Test results published in ChEMBL document CHEMBL4888484, “Replenishing the malaria drug discovery pipeline: Screening and hit evaluation of the MMV Hit Generation Library 1 (HGL1) against asexual blood stage Plasmodium falciparum ,using a nano luciferase reporter read-out” (2022).
# About 540 (0.36%) of roughly 150,000 compounds showed an effect of 50% or more. The list shows a part of the results.
# Tested on: Plasmodium falciparum
# Experiment: Primary screen in NF54 nanoGlo assay, in single point, at 2uM, 72h; a lower Z score goes with more inhibition
# Format: functional, Erythrocyte
# Conditions: timepoint 72 hour
Compound,% Inhibition,Z score
CN1CCC(O)(c2nc(-c3ccco3)nn2CC(C)(C)O)CC1,-2%,0.4
O=S(=O)(c1cncc(F)c1)N1CCOC2CCCCC21 (stereo unspecified),-2%,0.24
CCOc1ccccc1C(=O)N1C[C@H]2C[C@H](C1)[C@H]1CCCC(=O)N1C2,-6%,1.25
CCOc1cccc(-n2cc(-c3ccccc3)nc2NC(=O)CN(CC(C)C)C(=O)Cc2ccccc2)c1,4%,-0.59
CC(=O)c1ccc(Cl)c(S(=O)(=O)Nc2cccc3c2C(=O)N(C)C3=O)c1,7%,-0.87
c1ccc(-c2ccc(OCCCCN3CCOCC3)cc2)cc1,-13%,1.68
CCn1nc(C)n2cc(S(=O)(=O)NC3CCCCCC3)cc2c1=O,6%,-0.75
c1nc(CNc2nnc(CC3CCCC3)o2)cs1,2%,-0.3
C[C@H](Oc1ccccc1)C(=O)N1CCc2cc(S(=O)(=O)N3CCOCC3)ccc21,-6%,0.81
CC(C)N1C(=O)[C@H](C)N(C(=O)NC2CCCC2)c2cccnc21,1%,-0.2
CC(C)OCCCNC(=O)c1ccc(Cl)o1,-6%,0.99
O=C1OCCN1CCN1CCCN(c2nc3ccccc3[nH]2)CC1,-14%,1.38
Cc1ccc(C(=O)O)n1Cc1ccc(Cl)cc1,-8%,1.14
Nc1cccc(C2CC(=O)NC(=O)C2)c1,2%,-0.38
O=C(Nc1cnc2ccnn2c1)c1ccc(F)cc1,11%,-1.44
CN(Cc1ccc(-n2cccn2)cc1)C(=O)C[C@]1(c2ccccc2)CC(=O)N(Cc2cccs2)C1=O,19%,-2.41
CC(CC(=O)N1CCCCCC1)NC1C2CCOC2C1(C)C (stereo unspecified),-11%,1.13
CN(CC(=O)NCCn1ccnn1)Cc1ccccn1,-7%,1.23
Cn1nc(C(F)F)cc1C(=O)Nc1cnn2c1NCCC2,-2%,0.28
Cc1cc(N2CCOCC2)ccc1NC(=O)c1cccnc1Nc1ccccc1F,1%,-0.1
Cc1nnc2sc(-c3ccc(NC(=O)COc4ccccc4Cl)cc3)nn12,-49%,5.74
O=S(=O)(Cc1ccco1)[C@H]1CCN(S(=O)(=O)C2CC2)C1,6%,-0.99
CCCN(CCO)C(=O)c1ccccc1F,-17%,1.97
COc1ccc(F)c(CN2CCC[C@@](O)(CN3CCC(F)(F)CC3)C2=O)c1,2%,-0.3
CC(C)(C)c1ccc(C(=O)Nc2cc(NC(=O)c3ccc(C(C)(C)C)cc3)cc(-c3nc4ccccc4o3)c2)cc1,10%,-1.56
O=C(CCCn1cncn1)N1CCC(c2nnc3n2CCCCC3)CC1,-19%,2.49
CCS(=O)(=O)N1CCN(c2nnc(C3CCCC3)n2C)CC1,0%,0.02

Compound,% Inhibition,Z score
Cc1nc(-c2cccc(CN(C)[C@H](c3ccccn3)C3CC3)c2)[nH]c(=O)c1F,-14%,1.54
Cc1cc(CN(C)C(=O)C[C@]2(c3ccccc3)CC(=O)N(Cc3ccc4c(c3)OCO4)C2=O)on1,7%,-0.98
CC(=O)N(CC(F)(F)F)c1ccccc1,0%,-0.01
CN(C)CCN(C)c1ccc(Br)cc1NCc1cncn1C,35%,-3.63
Cc1ccc(-c2nc(C#N)c(S(=O)(=O)N3CCN(c4cccc(Cl)c4)CC3)o2)cc1,5%,-0.64
COCC(=O)N1CCN(C(=O)c2cccc(F)c2)C[C@@H]1C(=O)N[C@@H](CC1CCCCC1)C(N)=O,-5%,0.74
CC(=O)N(CCN1CCCCC1)[C@H]1CCCN(S(=O)(=O)c2ccc(C(C)C)cc2)C1,-10%,1.31
CC(C)(C#N)C(=O)Nc1ccc(S(C)(=O)=O)c(F)c1,-13%,1.74
COc1cccc2sc(OC3CN(C(=O)Nc4ccccc4F)C3)nc12,-18%,2.02
C#CC(C)(C)N(C)Cc1ccc(C(=O)OC)c(F)c1,-14%,2.58
Cc1nnc(CNc2ccc(Oc3ccc(C(F)(F)F)cc3)c(C#N)c2)s1,1%,-0.13
Cc1ccc(F)c(CN2CCc3nc(N4CCCCC4)nc(Oc4ccc(F)c(F)c4)c3C2)c1,9%,-1.21
COc1cc(OC)nc(C(=O)N2CC[C@H](Oc3ccc(C)cn3)C2)n1,-3%,0.49
CCN1C/C(=N\S(=O)(=O)c2ccc(C)cc2)N(CC)C1=O,10%,-1.97
CNc1cc(C(=O)NC[C@@H](CO)Cc2cccs2)ccn1,-11%,1.15
c1ccc(Nc2nc3nonc3nc2NC2CCCCC2)cc1,-2%,0.2
Cc1ccc(-c2nc(N)nc3[nH]ncc23)c(-n2cccn2)c1,-9%,1.8
CCc1nnc(CN2CCN(C(C)(C)C)c3ccccc32)o1,-18%,2.47
O=C(NC[C@H]1CS(=O)(=O)c2ccccc2O1)c1cscc1C(F)(F)F,0%,-0.07
CC(C)(C)COC(=O)NC[C@H]1CCN(C(=O)c2ccc[nH]2)C[C@@H]1O,-8%,1.44
CC(C)(NCCCNS(C)(=O)=O)c1ccc(F)cc1Cl,7%,-0.95
CN1CCc2[nH]cnc2C12CCN(C(=O)c1ccc3[nH]nnc3c1)CC2,-9%,1.34
O=C1NC[C@@H]2CCC[C@@H](CCOc3ccccc3C(=O)N3CCNC[C@@H]13)O2,-1%,0.15
O=C(O)C1(n2cnc3ccccc32)CCN(c2ccncc2)CC1,15%,-1.91
CCc1nc(C(=O)NC2CCN(c3[nH]cnc4ncnc3-4)CC2)c[nH]1,-1%,0.15
Cc1cc(C)c(C(=O)N2CC(S(=O)(=O)Cc3ccco3)C2)c(C)c1,-15%,1.92
